# Reference: article PMC4336329 (PLoS ONE, 2015)
# Out of some 310,000 compounds screened, about 14,000 (4.5%) showed an effect of 50% or more. The effect is printed as a negative number. This is one part of the list.
# Target: human ether-à-go-go-related gene (hERG) potassium channel (human, UniProt Q12809)
# Assay: primary screen, population patch clamp on CHO cells stably expressing hERG
# 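Further: peak tail current of the secondary pulse compared with the same well before compound.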
# human ether-à-go-go-related gene (hERG) potassium channel, sequence (Q12809 whole entry, looked up): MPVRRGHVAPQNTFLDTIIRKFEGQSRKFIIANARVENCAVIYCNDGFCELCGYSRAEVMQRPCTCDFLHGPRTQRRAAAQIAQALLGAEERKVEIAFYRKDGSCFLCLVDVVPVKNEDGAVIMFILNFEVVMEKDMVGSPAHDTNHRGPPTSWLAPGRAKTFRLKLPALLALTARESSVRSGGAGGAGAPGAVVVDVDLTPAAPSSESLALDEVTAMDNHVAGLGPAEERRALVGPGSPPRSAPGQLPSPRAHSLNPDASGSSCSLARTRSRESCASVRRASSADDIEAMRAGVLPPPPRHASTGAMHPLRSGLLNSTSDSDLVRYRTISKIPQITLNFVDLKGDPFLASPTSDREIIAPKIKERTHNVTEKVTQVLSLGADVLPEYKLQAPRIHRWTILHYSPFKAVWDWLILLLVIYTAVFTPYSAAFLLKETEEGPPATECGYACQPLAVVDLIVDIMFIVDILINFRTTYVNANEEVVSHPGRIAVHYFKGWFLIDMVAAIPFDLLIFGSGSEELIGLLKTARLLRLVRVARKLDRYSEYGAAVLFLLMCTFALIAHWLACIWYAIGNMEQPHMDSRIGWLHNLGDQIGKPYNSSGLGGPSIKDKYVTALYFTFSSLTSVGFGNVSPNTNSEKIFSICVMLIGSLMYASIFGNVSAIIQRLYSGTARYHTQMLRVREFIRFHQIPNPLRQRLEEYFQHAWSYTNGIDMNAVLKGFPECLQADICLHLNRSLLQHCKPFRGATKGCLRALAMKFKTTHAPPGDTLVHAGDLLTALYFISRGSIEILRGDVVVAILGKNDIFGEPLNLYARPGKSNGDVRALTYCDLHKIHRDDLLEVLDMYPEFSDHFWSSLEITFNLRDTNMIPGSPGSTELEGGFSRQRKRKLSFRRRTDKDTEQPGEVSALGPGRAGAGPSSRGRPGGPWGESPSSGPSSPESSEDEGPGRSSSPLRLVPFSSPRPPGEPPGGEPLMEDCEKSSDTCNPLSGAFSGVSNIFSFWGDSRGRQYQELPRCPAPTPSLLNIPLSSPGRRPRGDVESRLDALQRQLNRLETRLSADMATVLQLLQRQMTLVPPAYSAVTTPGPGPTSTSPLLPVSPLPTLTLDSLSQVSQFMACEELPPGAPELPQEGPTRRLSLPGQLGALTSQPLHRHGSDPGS
row,Compound,"hERG current change (%, negative = inhibition) at 10uM"
1,O=c1c2ccccc2nnn1CSc1nnc(-c2ccc3c(c2)OCO3)o1,5.15%
2,O=C(COc1ccccc1)NC(=S)Nc1cccc2cc(O)ccc12,12.8%
3,COc1ccc(N(C(=O)Cn2nnc3ccccc32)C(C(=O)NCc2ccco2)c2ccc(C)o2)cc1 (stereo not drawn),-8.13%
4,CC(C)(C)OC(=O)NCCc1nnc(SCC(N)=O)o1,3.41%
5,CCCCNC(=O)Nc1cnn(CC)c1C(N)=O,-0.731%
6,COc1ccccc1CNC(=O)c1ccc2nc(N3CCOCC3)sc2c1,-12.1%
7,CC1CCN(c2ccc(C=O)o2)CC1,-10.3%
8,CC(/C=C1\SC(=S)N(CCCC(=O)Nc2ccc(C(=O)O)c(O)c2)C1=O)=C\c1ccccc1,7.47%
9,O=C(CCCCCn1c(=S)[nH]c2cc3c(cc2c1=O)OCO3)N1CCN(c2ccccc2)CC1,15.2%
10,CN(C)C(=O)CSc1nc2ccc(C(=O)c3ccccc3)cc2[nH]1,-16.4%
11,CCCc1nn(C)c(C(=O)Nc2ccc(CC)cc2)c1Cl,2.84%
12,Cc1c(C(=O)N2CCN(c3ccccc3)CC2)oc2c(Cl)cccc12,4.82%
13,COc1cccc(S(=O)(=O)N2CCN(Cc3ccc4c(c3)OCO4)CC2)c1,-24.4%
14,COc1ccc2c(c1)C1=NN(/C(C)=C/C(C)=O)C(c3cccc(F)c3)C1CC2 (stereo not drawn),-5.18%
15,Cc1c(Cc2ccccc2)c(=O)oc2cc(OC(=O)c3ccccc3)ccc12,15.8%
16,CC(NC(=O)Cn1c(NCCO)nc2ccccc21)C1CC2CCC1C2 (stereo not drawn),9.08%
17,COc1ccc(C(=O)NCc2nnc(SCC(=O)Nc3cc(Cl)ccc3OC)o2)cc1,-42%
18,COc1cc(C(=O)Nc2ccc(NC(=O)C3CC3)nc2)cc(OC)c1OC,-3.02%
19,CN(C)C=NC(=O)/C(C#N)=C1\CCc2ccccc2N1,-14.4%

row,Compound,"hERG current change (%, negative = inhibition) at 10uM"
1,Cl.N[C@@H](Cc1ccccc1)c1nnc(SCc2ccccc2Cl)o1,-17.4%
2,CCNc1nc(NCC)nc(Oc2ccc(C(=O)OC)cc2)n1,-5.78%
3,CC1CN(Cc2cc(=O)oc3cc(O)ccc23)CC(C)O1 (stereo not drawn),-23.3%
4,Cc1cc(C)cc(CSc2nnc(C)c(=O)[nH]2)c1,-7.36%
5,Cc1cc(N2C(=O)C3C4CC(C(Br)C4Br)C3C2=O)no1 (stereo not drawn),32.7%
6,O=C(Nc1ccc2c(c1)OCO2)c1c(F)c(F)c(F)c(F)c1F,-0.0939%
7,O=C(NCCN1CCN(C(=O)Nc2ccccc2)CC1)Nc1ccccc1,-0.332%
8,COc1ccc(-c2cc(C)no2)cc1S(=O)(=O)NCc1cccc(C)c1,-41.5%
9,COCCc1ccc(OCC(O)CNC(C)C)cc1.O=C(O)[C@H](O)[C@@H](O)C(=O)O (stereo not drawn),-1.76%
10,CC(Oc1cc2oc(=O)c3c(c2cc1Cl)CCC3)C(=O)NCCCN1CCCC1=O (stereo not drawn),-49.7%
11,CC(=O)N1c2ccc(S(=O)(=O)N3CCC(C(=O)N4CCN(c5cc(Cl)ccc5C)CC4)CC3)cc2CC1C (stereo not drawn),-7.33%
12,Cc1ccc2cc(CCNC(=O)C3CCCC3)c(=O)[nH]c2c1,6.03%
13,CC(O)CCC(=O)NNC1=CC(=O)CC(C)(C)C1 (stereo not drawn),5.62%
14,COC1(c2ccccc2)NC(=S)NN=C1c1ccccc1 (stereo not drawn),13.1%
15,Cc1ccccc1NC(=O)COc1ccc(Br)cc1C,22.4%
16,CC12CCC(CC1=O)C2(C)C (stereo not drawn),8.29%
17,O=C(CS(=O)(=O)c1ccc(F)cc1)Nc1nccs1,9.06%
18,O=C(CSc1n[nH]c(=O)[nH]c1=O)NC1CC1,16.5%
19,COc1ccc(C2/C(=C(/O)c3ccc(S(=O)(=O)N4CCOCC4)cc3)C(=O)C(=O)N2CCN2CCOCC2)cc1 (stereo not drawn),6.11%

row,Compound,"hERG current change (%, negative = inhibition) at 10uM"
1,CCCNC(=O)c1cc(Cl)c(NC(=O)C2=C(C)OCCS2)cc1OC,-14.5%
2,COc1cc(C(O)c2nc3ccccc3s2)cc(OC)c1OC (stereo not drawn),8.99%
3,Cc1ccc(CSc2nc3c(cc2C#N)CCC3)cc1,0.0972%
4,O=C(CSc1nnc(-c2ccco2)o1)NC(=O)Cc1ccccc1,-5.31%
5,COCCCNC(=S)N1CCN(c2nc(C)nc3sc4c(c23)CCCC4)CC1,-34.4%
6,CCOC(=O)CCCCC(=O)c1[nH]c(=O)[nH]c1Cn1ccnc1,8%
7,CS(=O)(=O)N(CC(=O)NCc1ccco1)c1cc(C(F)(F)F)ccc1Cl,-9.85%
8,COc1ccc(Cl)cc1S(=O)(=O)N1CCCc2ccccc21,-9.71%
9,Cc1cc2ccccc2n1CCNC(=O)c1cccs1,-0.757%
10,COc1ccc(N2CCN(Cc3nc(-c4ccc(Cl)cc4Cl)no3)CC2)cc1,-1.91%
11,O=C(NCc1ccco1)C(c1ccccc1)N(Cc1ccccc1)C(=O)Cn1nnc2ccccc21 (stereo not drawn),10.6%
12,CN1CCN(C(CNS(=O)(=O)c2ccc([N+](=O)[O-])cc2)c2ccc(F)cc2)CC1 (stereo not drawn),-67.6%
13,COc1ccc(C(=O)NNC(=O)C(=O)Nc2cccc3ccccc23)cc1,13.2%
14,Cc1ccc(C(=O)/C=C/c2ccccc2)o1,2.45%
15,O=C(O)c1[nH]c2ccccc2c1C(c1c(F)cccc1Cl)c1c(C(=O)O)[nH]c2ccccc12,18.2%
16,O=C(NCCC1CCCCN1S(=O)(=O)c1ccccc1)C(=O)NCc1ccncc1 (stereo not drawn),-2.1%
17,CCCCCn1c(SCCN2CCOCC2)nc2c1c(=O)[nH]c(=O)n2C,-66.5%
18,O=C(COC(=O)c1nc(Cl)c(Cl)c(Cl)c1Cl)NCc1ccccc1,0.12%
19,CCOCC(=O)Nc1ccc(OCc2ccccc2)cc1,0.919%
